Assay results: PubChem BioAssay AID1508624 (National Center for Advancing Translational Sciences (NCATS), 2021)
Hit rate of the full screen: of about 48,000 compounds, about 120 (0.25%) were called active. Roughly 4% stayed inconclusive and do not appear here. The call rests on the fitted dose curve; in most records, active means well fitted activation curve with a large enough effect; inconclusive means small, poorly fitted or top-dose-only effect, or another doubt; inactive means no such curve, though single readings can be large or run the other way. Some of the results follow.

experiment: Primary qHTS for Identification of Small Molecule Activators of Huntingtin-Antisense Promoter Activity; conditions: HEK293 HTT-AS promoter firefly luciferase reporter (activity 0% = vehicle and -100% = no light), 24 h; series mostly up to 57.5 µM; activity change, positive = activation: at the top concentration; further: nearly all actives have a fitted effect of over 55% in size
In short: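 HEK293 Fluc reporter, 2,500 cells/well, 24 h pre-culture; cpds up to 57.5 uM final, 24 h 37 degrees C; Dual-Glo, 10 min RT; normalized vehicle = 0%, zero RLU = -100%.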

Activity change, positive = activation, inactive:
CN1CCN(c2nc3c(S(=O)(=O)c4ccc(Br)cc4)nnn3c3ccsc23)CC1 -3.39%
Oc1ccc(Cl)cc1C1=Nc2ccccc2N=C(c2cccc(Br)c2)C1 10.2%
COc1cccc(CN2CCc3nc(N4CCN(c5ncccn5)CC4)ncc3C2)c1 -53.4%
CCc1sc(Nc2cccc(Cl)c2C)nc1-c1cc2cccc(OC)c2oc1=O -15.7%
COc1ccc(OC)c(NC(=O)c2cc(CN3CCCC3)on2)c1 -10.5%
O=C(CC1C(=O)OCCN1Cc1ccccc1)Nc1cccc(C(F)(F)F)c1 (stereo not given) -31.2%
Cc1cccc(-c2nc3c4ccccc4nc(NCc4ccc(Cl)cc4)n3n2)c1 9.57%
CC(=O)c1ccc(NC(=O)CSc2cn(CC(=O)N3CCCCCC3)c3ccccc23)cc1 -38.9%
Cc1c(Cn2c(C)nc3c(C(=O)O)cc(N4CCOCC4)cc32)cccc1C(F)(F)F -30.9%
COc1ccc(-c2cc(C(=O)NCc3ccc(F)cc3)c3c(-c4ccc(F)cc4)[nH]nc3n2)cc1OC 0%
COc1ccc(NC(=O)CSc2oc(-c3ccco3)nc2S(=O)(=O)c2ccc(Br)cc2)c(OC)c1 -12%
CCc1ccc2oc(-c3cc(NC(=O)C(C)C)cc(C)c3O)nc2c1 5.84%
CC(C)Cn1c(=O)c2sccc2n2c(CCCC(=O)NCc3ccccc3Cl)nnc12 -1.08%
CCCCNC(=O)CCn1c(=O)c2ccccc2n(Cc2ccccc2C#N)c1=O -11.5%
CCC(=O)N1CCc2cc(Br)cc(S(=O)(=O)N3CCCC(C(=O)Nc4cccc(Cl)c4C)C3)c21 (stereo not given) -27.4%
CCOc1ccc(CC(=O)Nc2c(C(=O)c3ccc(C)cc3)oc3ccccc23)cc1OCC -5.24%
Cc1ccc(C(=O)COC(=O)C(CC(C)C)NC(=O)C2CCC(C)CC2)cc1 (stereo not given) -10.2%
CCc1ccccc1NC(=O)c1ccc2nc(CCc3ccccc3)oc2c1 10.5%
COc1cc(C2N=C(N)Nc3nc4ccccc4n32)ccc1OCCC(C)C (stereo not given) -24.3%
O=C(Cc1cccc([N+](=O)[O-])c1)NCc1nc2cccnc2n1Cc1ccc(F)cc1 -20.9%
CC(=O)c1cccc(NC(=O)C2CCCN(c3nnc(-n4cccc4)s3)C2)c1 (stereo not given) -12.1%
Cn1c(=O)cc(OCCCC(=O)Nc2ccc(F)cc2)c2ccccc21 24%
CCOc1ccc(NS(=O)(=O)c2cc(Br)cc3c2N(C(=O)C2CC2)CC3)cc1 -23.5%
CCCN(CCC)CCCNC(=O)C1CCCN(S(=O)(=O)c2cccc3nsnc23)C1 (stereo not given) 2.83%
Cc1ccccc1-c1nc(CS(=O)(=O)CC(=O)N2CCN(c3ccccc3)CC2)c(C)o1 -26%
CC(=O)Nc1ccc(NC(=O)CCNS(=O)(=O)c2cccc3nsnc23)cc1 0.681%
CCC(C)(CN(C)C)OC(=O)c1ccccc1 (stereo not given) -8.94%
CCc1ccc2oc(-c3cccc(NC(=O)c4ccc(N5CCC(C)CC5)c([N+](=O)[O-])c4)c3)nc2c1 19.9%
COc1cccc(NC(=O)Cn2cc(S(=O)(=O)N3CCCC3)c(S(=O)(=O)N3CCCC3)c2)c1 -6.77%
CCOc1ccccc1CNC(=O)c1cc2cc(S(=O)(=O)N3CCCCC3)ccc2n1C -32.3%
Cc1ccccc1CNC(=O)Cn1ncn2nc(-c3cccs3)cc2c1=O -0.653%
O=C(COc1ccc(S(=O)(=O)NC2CCCCC2)cc1)Nc1ccc(C(F)(F)F)cc1 -28.5%
Cc1cc(N2CCCCC2)nc2ccc(NC(=O)/C=C/c3ccccc3OC(C)C)cc12 -16.4%
CCOc1ccc(N(CC)S(=O)(=O)N2CCCC(C(=O)NCc3ccccc3Cl)C2)cc1 (stereo not given) -32.9%
CCOc1cccc(CC(=O)N2CCc3c([nH]c4ccccc34)C2c2ccc(F)cc2)c1OCC (stereo not given) -24.7%
O=S(=O)(c1ccccc1)n1nc(-c2ccccc2)nc1NCc1ccc(Cl)cc1 -11.3%
Cc1ccc(CNC(=O)CSCc2ccc(F)cc2)cc1 4.15%
Cc1ccc(NC(=O)c2oc3ccccc3c2NC(=O)c2cc3ccccc3o2)cc1 20%
O=C(CSc1cn(CCNC(=O)c2c(F)cccc2F)c2ccccc12)Nc1ccc2c(c1)OCCO2 -23.3%
COC(=O)c1ccc(NC(=O)c2cc(S(=O)(=O)N3CCc4ccccc43)cn2C)cc1 -18.3%
CC(C)CC(NS(=O)(=O)c1ccc2c(c1)oc(=O)n2C)C(=O)NCCc1ccc(Cl)cc1 (stereo not given) -10.8%
CCCc1nc(C)c2c(=O)[nH]c(-c3cc(S(=O)(=O)N4CCN(CC)CC4)ccc3OCC)nn12
Cc1cc(C)cc(NS(=O)(=O)c2ccc3[nH]cc(C(=O)N4CCCC4)c(=O)c3c2)c1 -7.92%
O=C(OCc1cc(=O)n2nc(C3CC3)sc2n1)c1ccc(F)cc1 36.5%
CCOc1ccccc1NC(=O)Cn1cnc2onc(-c3ccc(F)cc3)c2c1=O -22.3%
COc1ccc(-n2c(=O)c3ccc(C(=O)NCc4ccc(C)cc4)cc3n(CC(=O)Nc3ccc(F)cc3)c2=O)cc1 -12.3%
NCc1c[nH]c(=S)n1[C@H]1CCc2c(F)cc(F)cc2C1 -22.2%
CC1=C(C(N)=O)C(c2cccc(Br)c2)n2nc(SCc3ccccc3)nc2N1 (stereo not given) -9.02%
O=C(NCc1cccnc1)C1CCN(Cc2cc3ccccc3n2Cc2cccc(Cl)c2)CC1 -27%
CCCCc1nnc(SCc2cc(=O)c3cc(C(=O)OCC)ccc3[nH]2)n1C -14.1%
CCC1CCc2nc3sc(C(=O)Nc4ccc(F)cc4F)c(N)c3cc2C1 (stereo not given) 12.8%
CC(=O)Nc1cccc(C(=O)NCc2ccc3c(c2)CCN3C(=O)c2ccccc2)c1 -23%
CCOc1ccc(CCNC(=O)Cn2nnc(-c3ccccc3)n2)cc1OCC -17%
Cc1ccc2cccc(NC(=O)c3ccc(-c4cccc([N+](=O)[O-])c4)o3)c2n1 -13.6%
COc1cc(OC)c(NC(=O)NC(C)c2c(-n3cccc3)sc(C)c2C)cc1Cl (stereo not given) -28.7%
CCCCNC(=O)CSc1nc2nc(C)c(Cc3ccccc3C)c(C)n2n1 -21%
COc1cc(NS(=O)(=O)c2ccc(NC(=O)c3ccccc3C(=O)O)cc2)nc(OC)n1 -9.61%
CC(C)CC(=O)Nc1ccc(C(=O)OCc2cc(=O)n3nc(C(C)C)sc3n2)cc1 -28%
COc1ccc(/C=C/c2nc(C#N)c(NCCc3ccc(OC)c(OC)c3)o2)cc1OC -26.2%
C[N+]1(C)[C@@H]2CC(OC(=O)[C@H](CO)c3ccccc3)C[C@H]1[C@H]1O[C@@H]12 (stereo not given in full) 14.2%
